Columns and labels:
[1] = target: HIV-1 YU2 Env spike on pseudovirus (HIV-1 (strain YU2)) (UniProt P35961)
[2] = target: HIV-1 YU2 Env spike on pseudovirus (HIV-1 (strain YU2)) (UniProt P35961); remark: listed apart in the source

Substance | IC50 of neutralisation of HIV-1YU2 pseudovirus by CD4-GpA-RBCs (modified TZM-bl assay), assay 1 [1] | IC50 of neutralisation of HIV-1YU2 pseudovirus by CD4-GpA-RBCs (modified TZM-bl assay), assay 2 [1] | IC50 of neutralisation of HIV-1YU2 pseudovirus by CD4-GpA-RBCs (modified TZM-bl assay), assay 3 [1] | IC50 of neutralisation of HIV-1YU2 pseudovirus by sorted CD4-GpA-RBCs from the BEL-A/CD4-GpA cell line [2]
CD4-glycophorin A fusion protein on RBCs derived from CD34+ HSCs (receptor) | 3e+06 RBCs/mL | 900000 RBCs/mL | 1.7e+06 RBCs/mL | –
CD4-glycophorin A fusion protein on RBCs derived from the BEL-A/CD4-GpA erythroblast cell line (receptor) | – | – | – | 2.1e+07 RBCs/mL

Reference: publication PMC7944778
